# Source: the supplement of paper PMC3334620
# Whole data set: some 33,000 sequences, median “E-score (-0.5 to 0.5)” near -0.035, cut for the highest 2% near 0.35. This is one part of the list.
# Target: T1, Pdr3 (UniProt P33200)
# T1 sequence: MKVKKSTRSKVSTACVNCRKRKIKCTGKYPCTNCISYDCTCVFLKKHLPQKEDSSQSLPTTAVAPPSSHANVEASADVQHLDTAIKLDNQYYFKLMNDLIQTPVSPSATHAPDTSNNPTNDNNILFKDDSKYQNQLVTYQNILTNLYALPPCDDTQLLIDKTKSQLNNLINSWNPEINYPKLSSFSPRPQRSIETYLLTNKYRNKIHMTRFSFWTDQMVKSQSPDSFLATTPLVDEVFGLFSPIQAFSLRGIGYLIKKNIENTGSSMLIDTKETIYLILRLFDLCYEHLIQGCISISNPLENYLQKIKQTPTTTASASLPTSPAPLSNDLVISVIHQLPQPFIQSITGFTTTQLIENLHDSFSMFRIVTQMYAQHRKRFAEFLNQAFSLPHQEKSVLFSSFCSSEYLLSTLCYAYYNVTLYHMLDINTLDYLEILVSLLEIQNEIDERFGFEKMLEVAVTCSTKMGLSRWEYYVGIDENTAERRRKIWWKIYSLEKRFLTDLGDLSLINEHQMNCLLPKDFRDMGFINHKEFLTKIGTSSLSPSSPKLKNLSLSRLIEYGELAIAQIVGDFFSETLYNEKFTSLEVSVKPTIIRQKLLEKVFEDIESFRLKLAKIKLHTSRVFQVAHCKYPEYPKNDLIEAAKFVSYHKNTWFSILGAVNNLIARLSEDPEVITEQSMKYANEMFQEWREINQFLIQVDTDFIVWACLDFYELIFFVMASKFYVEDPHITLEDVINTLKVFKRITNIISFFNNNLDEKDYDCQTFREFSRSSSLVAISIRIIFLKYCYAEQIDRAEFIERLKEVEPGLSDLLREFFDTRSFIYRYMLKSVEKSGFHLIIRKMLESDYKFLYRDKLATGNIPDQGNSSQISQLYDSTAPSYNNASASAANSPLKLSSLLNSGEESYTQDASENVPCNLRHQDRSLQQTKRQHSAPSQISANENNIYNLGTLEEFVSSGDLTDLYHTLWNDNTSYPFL
# Test: PBM E-score (8-mer binding enrichment) (E-score (-0.5 to 0.5)); higher = stronger / more preferred TF binding; most listed sequences are background and not binding sites
# Settings: protein concentration: 200 nM; construct: GST-full length
# Procedure, shortened: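 Universal all-10-mer Agilent arrays, double-stranded by primer extension on fresh or once-stripped slides, were probed with about 100-200 nM GST-tagged yeast transcription factors made by PURExpress. Fluorescent anti-GST detected bound protein, and masliner normalised the scans. E-scores from the Universal PBM Analysis Suite were given to each ungapped eight-base word pooled with its reverse complement.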
row,Sequence,PBM E-score
1,ACGAATAG,-0.209
2,CCAGTAGG,-0.132
3,ACTCTCCG,0.302
4,TCCCGCAA,0.223
5,CGTGACGA,0.0083
6,ACACTACA,0.034
7,ACGGAGGC,0.249
8,GGAGTTGA,0.0524
9,GATCACGC,0.143
10,AGGGAGCC,-0.108
11,ACAATCAC,-0.131
12,CTGGCTAA,-0.187
13,CAATGGTA,-0.00598
14,ACTGTGTC,-0.0823
15,ACGAACAA,0.108
16,AATTAGGG,-0.0163
17,AGTGTAAC,-0.158
18,GAAGAATA,-0.231
19,GCCACACA,0.0788
20,CACGCACA,-0.00829
21,CGGGGACG,0.124
22,TGGATGAA,-0.0658
23,ACTTACGC,-0.113
24,CGCCCCCG,0.14
25,GACTCTGA,-0.109

row,Sequence,PBM E-score
1,GTCGGGGA,0.136
2,AAGGCCCC,-0.0506
3,GCAGGCGC,0.0764
4,ATTCGAAC,-0.067
5,GCGCACGC,0.0986
6,ATACTCGG,0.192
7,AAGAATAC,-0.0155
8,AGTGTTTC,-0.0492
9,TGCTCACA,-0.239
10,AGTTGAAC,-0.126
11,CCGAGGAG,0.132
12,CGGAGTAG,0.304
13,AGATAGCT,-0.0286
14,GACAATTA,-0.0371
15,ACGAGGCG,0.131
16,GCGAATCA,0.0185
17,GCTTAGAC,-0.21
18,ATGAGTGG,-0.132
19,CCAAGGCC,-0.138
20,CAATAAAG,-0.0376
21,ACGCGCAT,-0.0392
22,CCCCTGGA,-0.189
23,TAAGAGCA,-0.058
24,ATAACGTA,0.0709
25,ATGCTGTG,-0.127

row,Sequence,PBM E-score
1,CACGAACA,0.0536
2,ATGTTTGA,-0.143
3,TCCTGGCA,-0.103
4,CGCCGGGA,0.382
5,GCGCTCCC,0.126
6,CATGTATA,-0.107
7,AGGTCTCG,-0.0596
8,GTTTCGAA,-0.103
9,AGCCCCCA,-0.313
10,TCCTTGCA,0.0152
11,GTACGAAC,0.105
12,GCAGAACA,0.0155
13,GACCAGAA,-0.0571
14,ACCAACCG,0.131
15,GCGAGGCC,-0.0699
16,GCCGGGCC,0.12
17,ACGAATAA,0.0662
18,GGGCCTTA,-0.127
19,CTACTGGA,-0.111
20,TCCGTGAA,0.292
21,ACGATCGC,0.0932
22,AGCGAACA,0.0441
23,AGGGACAA,-0.00735
24,GTAAAGGA,-0.0548
25,CACTTGAG,-0.186

row,Sequence,PBM E-score
1,ACCCCCTA,-0.329
2,AGATATCC,0.134
3,AAATGATT,0.242
4,ATGTCAGA,-0.153
5,GAACAAGC,-0.0175
6,ATCATTAG,-0.196
7,GAAAAGCC,0.102
8,ATCATACA,-0.0423
9,ACCTGGTA,-0.121
10,ATTAGGTG,-0.0638
11,ACAGCTAA,-0.183
12,AGGTCAGG,-0.144
13,ATCTGGAC,-0.0423
14,GGATTTCA,0.199
15,ATTTTAGC,-0.0617
16,TATGGGCA,-0.0617
17,CGCGTGTC,0.21
18,TGTTTAAA,-0.205
19,GCGGCCCC,0.0899
20,AGGGCTAC,-0.225
21,AGCAGCTC,-0.121
22,ATGGGTCC,0.14
23,CAGATCGC,0.113
24,AGCGGGAG,0.0627
25,ATATCCCC,0.0317

row,Sequence,PBM E-score
1,GGGTCACC,-0.159
2,CGCTCATC,0.013
3,GCGGAAGA,0.393
4,CTTGGTCA,-0.0783
5,GCACGCTA,0.0255
6,AGAGTCGA,-0.0208
7,CTGACGAA,-0.0238
8,ATGGGATC,0.0712
9,CCCCACCA,0.0754
10,GCACTGCA,-0.108
11,GACGCTAA,-0.213
12,ATCTAGTC,-0.00378
13,AAAACTGT,-0.0893
14,AAACTTAC,-0.119
15,AGCTAAAC,-0.256
16,CGTCCTCC,0.0652
17,CGTTATGA,-0.0992
18,CGGTCACG,0.00048
19,GCCGGCTA,0.248
20,AGCAAACC,0.0426
21,ACGGTCCC,0.117
22,CTGGAACA,0.117
23,GCGCTGCA,0.013
24,GTCCCGCA,0.229
25,CCCGCTGC,0.142

row,Sequence,PBM E-score
1,CGCGCTGC,0.00597
2,ACAGGGCA,-0.0902
3,GTCTTATA,-0.143
4,GGTATTCA,0.0285
5,CACCTGTC,-0.00221
6,AGCACTCC,0.127
7,CAGATAAG,-0.172
8,ACGCGAAA,-0.109
9,CTCGATCA,0.00171
10,AGTTGATA,0.0574
11,AGTCACTC,-0.123
12,GACTCACA,-0.189
13,CTGAACAG,-0.0635
14,GGATTGCC,0.15
15,ATTTAAAT,-0.0161
16,ATGACTCG,-0.00485
17,ACACGAGC,-0.203
18,ACAATCCA,-0.0121
19,AACTTAGC,-0.0982
20,AGATAAAG,-0.0658
21,CATTCGCG,0.196
22,CGACGGGC,0.276
23,CTAACGGC,-0.00464
24,CAAGCATG,-0.106
25,CAATTCAA,-0.0576

row,Sequence,PBM E-score
1,ACCTTAAT,-0.126
2,AATCGGGC,0.00554
3,AGTGACGG,0.195
4,ACTTTGCC,0.0636
5,AGAGAAAA,0.0894
6,ATTGGACG,-0.0498
7,GTATATAA,-0.0896
8,GTCAGTGA,-0.0573
9,TCCGATCA,0.322
10,ACATATAT,0.0497
11,ACGACGGC,0.04
12,CACTACGG,0.222
13,AGTGTTTA,-0.09
14,CAGCTGCC,0.0916
15,AGCCAAGA,-0.15
16,CCCTTTGC,-0.105
17,ATTTCGGC,0.169
18,TGGACTAA,-0.183
19,ACACACGT,-0.121
20,AGCAAAAA,-0.15
21,GGATGACA,0.13
22,ATCCAAGG,0.00676
